{
  "source": "PubChem BioAssay AID1768",
  "about": "(National Center for Advancing Translational Sciences (NCATS), 2009)",
  "note": "Hit rate of the full screen: of about 270,000 compounds, about 620 (0.23%) were called active. Inconclusive means that the source gave no clear call. Such entries were picked first, then a sample of the others. The call rests on the fitted dose curve; in most records, active means well fitted inhibition curve with a large enough effect in the polarisation, with a control signal flat (not every such curve was filed as active); inconclusive means small, poorly fitted or top-dose-only effect, or effect the other way, or a change in a side signal; inactive means no such curve, though single readings can be large or run the other way; the % refers to the polarisation. Where the call is inconclusive, the potency comes from a doubtful curve fit. A note “side channel” means that the fit belongs to a control or component signal, not to the main read-out. Potency means the concentration at half of the fitted maximal effect; tags describe the fitted curve by direction and shape or compound fluorescence and quenching.",
  "data": [
    {"target": "Menin (Homo sapiens) (UniProt O00255)", "sequence (O00255 whole entry, looked up)": "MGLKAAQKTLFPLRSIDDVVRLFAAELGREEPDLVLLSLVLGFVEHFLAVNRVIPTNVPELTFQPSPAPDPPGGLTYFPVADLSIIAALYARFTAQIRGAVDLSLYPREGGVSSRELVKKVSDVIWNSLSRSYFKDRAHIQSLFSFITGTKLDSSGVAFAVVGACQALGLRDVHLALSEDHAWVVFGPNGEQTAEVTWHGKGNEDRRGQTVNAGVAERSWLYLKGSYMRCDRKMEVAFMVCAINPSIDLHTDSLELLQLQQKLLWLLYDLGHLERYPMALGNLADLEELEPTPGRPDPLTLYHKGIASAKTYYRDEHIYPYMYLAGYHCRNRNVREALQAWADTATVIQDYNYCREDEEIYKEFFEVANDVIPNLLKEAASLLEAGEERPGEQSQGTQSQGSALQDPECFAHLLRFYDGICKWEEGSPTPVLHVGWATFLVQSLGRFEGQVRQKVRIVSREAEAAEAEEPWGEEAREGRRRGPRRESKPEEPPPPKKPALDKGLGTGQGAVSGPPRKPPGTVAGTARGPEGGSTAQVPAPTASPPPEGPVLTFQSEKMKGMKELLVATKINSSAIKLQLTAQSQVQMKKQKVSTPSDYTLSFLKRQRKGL", "assay": "qHTS Assay for Inhibitors Targeting the Menin-MLL Interaction in MLL Related Leukemias: Competition With Texas Red Labeled MLL-derived Mutant Peptide; on FP activity change, negative = inhibition: % of control where 0% means no effect", "details": "fluorescence polarization; FP activity change, negative = inhibition: at 61.6 µM (top of the series)", "values": [
      {"smiles": "CC(C)(C)C1CCC(OC(=O)C[N+]2(C)CCCC2)CC1", "note": "(stereo unspecified)", "FP activity change, negative = inhibition": "inactive: 13.2%"},
      {"smiles": "Cc1ccc(NC(=O)CC2S/C(=N/N=C/C=C/c3ccccc3)NC2=O)cc1Cl", "note": "(stereo unspecified)", "Potency": "inconclusive: 7.94 µM [quencher, side channel, partial curve]"},
      {"smiles": "Nc1ccc(-c2nc(-c3ccccc3)nc3ccccc23)cc1", "Potency": "inconclusive: 6.31 µM [quencher, side channel, partial curve]"},
      {"smiles": "CCOC(=O)N1CCN(Cc2nc(N)nc(Nc3ccc(OCC)cc3)n2)CC1", "FP activity change, negative = inhibition": "inactive: 0.912%"},
      {"smiles": "O=C(Nc1ccccc1Cl)ON=C1c2ccccc2-c2ccccc21", "Potency": "inconclusive: 7.08 µM [quencher, side channel, full curve]"},
      {"smiles": "Cc1ccccc1N1C(=O)c2ccccc2C1O", "note": "(stereo unspecified)", "Potency": "inconclusive: 10 µM [inhibitor, partial curve]"},
      {"smiles": "O=S(=O)(Nc1nc(-c2ccccc2)cs1)c1cc(Cl)ccc1Cl", "Potency": "inconclusive: 28.2 µM [quencher, side channel, single point]"},
      {"smiles": "Cc1cc(C)n2c(SCC(=O)N3CCN(S(=O)(=O)c4ccc(Cl)cc4)CC3)nnc2n1", "Potency": "inconclusive: 10 µM [quencher, side channel, partial curve]"},
      {"smiles": "CNC(=O)c1ccsc1NC(=O)c1ccc(S(=O)(=O)N2CCCc3ccccc32)cc1", "Potency": "inconclusive: 0.708 µM [quencher, side channel, partial curve, poor fit]"},
      {"smiles": "CSc1nsc(N/N=C/c2ccc3c(c2)OCO3)c1C#N", "Potency": "inconclusive: 12.6 µM [quencher, side channel, partial curve]"},
      {"smiles": "O=C(O)COCC(=O)N1CCc2c([nH]c3ccccc23)C1C(F)(F)F", "note": "(stereo unspecified)", "Potency": "inconclusive: 39.8 µM [inhibitor, single point]"},
      {"smiles": "O=C(Nc1nc2n(n1)C(c1ccccc1)C=C(c1ccccc1)N2)c1ccco1", "note": "(stereo unspecified)", "Potency": "inconclusive: 39.8 µM [quencher, side channel, single point]"},
      {"smiles": "COc1cc2c(cc1OC)C(C)N(C(=O)c1cc(Cl)nc(Cl)c1)CC2", "note": "(stereo unspecified)", "Potency": "inconclusive: 11.2 µM [inhibitor, partial curve]"},
      {"smiles": "CCN1C(=O)[C@H]2[C@H]3[C@H](O)[C@H](O)C/C(=N/OCc4ccccc4)[C@H]3CC[C@@H]2C1=O", "FP activity change, negative = inhibition": "inactive: 2.79% [at 11.7 µM]"},
      {"smiles": "COc1cc(CNc2ccc3[nH]c(=O)[nH]c3c2)ccc1OCc1ccc(F)cc1Cl", "Potency": "inconclusive: 11.2 µM [quencher, side channel, partial curve]"},
      {"smiles": "N=C1/C(=C\\c2ccc(OC(=O)c3ccccc3)cc2)C(=O)N=C2SC(N3CCOCC3)=NN12", "Potency": "inconclusive: 14.1 µM [quencher, side channel, partial curve]"}
    ]}
  ]
}
